Each structure is given as a SMILES string.

Three compounds from ChEMBL document CHEMBL5291721, “A preclinical secondary pharmacology resource illuminates target-adverse drug reaction associations of marketed drugs” (Nat Commun, 2023) can be followed below.

Targets include Melanocortin receptor 4 (Homo sapiens, UniProt P32245); Glucocorticoid receptor (Homo sapiens, UniProt P04150); D(3) dopamine receptor (Homo sapiens, UniProt P35462); Histamine H3 receptor (Homo sapiens, UniProt Q9Y5N1); D(1A) dopamine receptor (Homo sapiens, UniProt P21728); Estrogen receptor (Homo sapiens, UniProt P03372); Progesterone receptor (Homo sapiens, UniProt P06401).
Experiment [1] concerns the target T1, Thromboxane A2 receptor (Homo sapiens, UniProt P21731).
T1 sequence (P21731 whole entry): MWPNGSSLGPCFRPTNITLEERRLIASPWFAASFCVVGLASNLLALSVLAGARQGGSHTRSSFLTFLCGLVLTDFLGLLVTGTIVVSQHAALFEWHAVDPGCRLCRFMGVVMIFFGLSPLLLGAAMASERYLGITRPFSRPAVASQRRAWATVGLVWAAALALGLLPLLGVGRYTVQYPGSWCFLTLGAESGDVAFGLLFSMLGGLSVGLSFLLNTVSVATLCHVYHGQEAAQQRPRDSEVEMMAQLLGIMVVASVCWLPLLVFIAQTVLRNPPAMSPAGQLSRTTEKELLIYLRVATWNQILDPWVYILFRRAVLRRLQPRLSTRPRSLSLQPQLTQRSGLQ

Experiment [2] deals with Type-1 angiotensin II receptor (Homo sapiens, UniProt P30556).
For experiment [3], the target named is T2, Adenosine receptor A3 (Homo sapiens, UniProt P0DMS8).
T2 sequence (P0DMS8 whole entry): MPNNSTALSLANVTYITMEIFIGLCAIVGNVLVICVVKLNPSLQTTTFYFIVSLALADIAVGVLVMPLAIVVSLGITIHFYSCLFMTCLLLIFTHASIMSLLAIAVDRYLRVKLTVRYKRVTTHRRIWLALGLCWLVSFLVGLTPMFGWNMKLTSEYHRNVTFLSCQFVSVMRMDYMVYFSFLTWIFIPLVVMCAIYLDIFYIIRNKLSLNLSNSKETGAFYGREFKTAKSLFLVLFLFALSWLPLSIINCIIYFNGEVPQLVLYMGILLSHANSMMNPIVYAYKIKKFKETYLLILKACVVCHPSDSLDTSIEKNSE
Experiment [4] has as its target Voltage-gated inwardly rectifying potassium channel KCNH2 (Homo sapiens, UniProt Q12809). The class given is functional.
In experiment [5] the target is Alpha-2A adrenergic receptor (Homo sapiens, UniProt P08913).
Sequence of Alpha-2A adrenergic receptor (P08913 whole entry): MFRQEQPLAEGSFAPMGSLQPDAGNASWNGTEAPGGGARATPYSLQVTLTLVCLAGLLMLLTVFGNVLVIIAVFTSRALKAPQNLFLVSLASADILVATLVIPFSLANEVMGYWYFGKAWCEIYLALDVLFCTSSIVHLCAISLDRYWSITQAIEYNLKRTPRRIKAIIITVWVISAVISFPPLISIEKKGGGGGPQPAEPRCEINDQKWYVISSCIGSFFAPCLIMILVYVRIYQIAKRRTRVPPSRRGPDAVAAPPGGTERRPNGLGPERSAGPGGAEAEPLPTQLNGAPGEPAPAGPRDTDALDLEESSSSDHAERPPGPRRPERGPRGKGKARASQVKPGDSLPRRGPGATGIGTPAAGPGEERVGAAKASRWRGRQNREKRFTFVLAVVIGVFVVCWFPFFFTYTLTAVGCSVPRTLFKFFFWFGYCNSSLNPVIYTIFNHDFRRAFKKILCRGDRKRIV
In experiment [6] the target is 3',5'-cyclic-AMP phosphodiesterase 4A (Homo sapiens, UniProt P27815). The format is functional.
Experiment [7] concerns the target Sodium-dependent dopamine transporter (Homo sapiens, UniProt Q01959).
Experiment [8] addresses T2, Adenosine receptor A3. The source holds these as a separate data set.
For experiment [9], the target named is Voltage-dependent L-type calcium channel subunit alpha-1C (Homo sapiens, UniProt Q13936). The format is functional, cell-based.
Experiment [10] deals with 5-hydroxytryptamine receptor 1A (Homo sapiens, UniProt P08908).
The target in experiment [11] is Sodium channel protein type 5 subunit alpha (Homo sapiens, UniProt Q14524). The format is functional, cell-based.
For a further experiment, the target named is Bile salt export pump (Homo sapiens, UniProt O95342). The class given is functional.
Sequence of Bile salt export pump (O95342 whole entry): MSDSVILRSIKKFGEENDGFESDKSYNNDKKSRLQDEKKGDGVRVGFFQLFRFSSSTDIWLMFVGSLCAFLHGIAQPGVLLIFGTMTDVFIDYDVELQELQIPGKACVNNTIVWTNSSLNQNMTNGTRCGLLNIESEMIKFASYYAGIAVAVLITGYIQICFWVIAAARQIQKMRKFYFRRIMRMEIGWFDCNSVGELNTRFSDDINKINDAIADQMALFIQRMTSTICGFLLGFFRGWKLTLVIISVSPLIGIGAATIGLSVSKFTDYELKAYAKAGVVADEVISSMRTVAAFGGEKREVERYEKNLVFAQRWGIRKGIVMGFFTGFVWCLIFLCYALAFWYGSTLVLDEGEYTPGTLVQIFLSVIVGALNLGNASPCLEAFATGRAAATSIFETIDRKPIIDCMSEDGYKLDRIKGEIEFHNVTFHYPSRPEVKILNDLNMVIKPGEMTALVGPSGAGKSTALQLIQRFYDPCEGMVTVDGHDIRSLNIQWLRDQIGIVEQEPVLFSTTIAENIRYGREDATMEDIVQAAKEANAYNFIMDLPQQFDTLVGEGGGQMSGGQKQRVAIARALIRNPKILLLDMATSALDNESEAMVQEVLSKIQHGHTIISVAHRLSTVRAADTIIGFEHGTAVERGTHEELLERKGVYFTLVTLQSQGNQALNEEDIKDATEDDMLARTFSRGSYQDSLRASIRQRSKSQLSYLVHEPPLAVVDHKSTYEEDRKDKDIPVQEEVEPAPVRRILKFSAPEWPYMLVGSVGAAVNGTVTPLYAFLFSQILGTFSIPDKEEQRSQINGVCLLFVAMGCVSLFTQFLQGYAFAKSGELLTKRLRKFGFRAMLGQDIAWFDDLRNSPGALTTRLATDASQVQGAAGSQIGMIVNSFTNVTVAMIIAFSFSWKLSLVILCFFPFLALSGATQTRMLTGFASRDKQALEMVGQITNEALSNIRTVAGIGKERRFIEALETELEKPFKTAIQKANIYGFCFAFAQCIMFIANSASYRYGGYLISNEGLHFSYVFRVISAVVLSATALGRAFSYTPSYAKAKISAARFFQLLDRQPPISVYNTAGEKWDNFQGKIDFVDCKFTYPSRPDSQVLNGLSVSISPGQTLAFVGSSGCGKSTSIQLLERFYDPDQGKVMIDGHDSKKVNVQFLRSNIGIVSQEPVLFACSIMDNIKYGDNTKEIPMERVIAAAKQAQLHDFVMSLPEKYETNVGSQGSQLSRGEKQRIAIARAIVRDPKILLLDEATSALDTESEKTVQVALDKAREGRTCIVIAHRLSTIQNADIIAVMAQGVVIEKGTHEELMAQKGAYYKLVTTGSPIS
In experiment [12] the target is T3, Alpha-1A adrenergic receptor (Homo sapiens, UniProt P35348). The class given is functional, cell-based.
T3 sequence (P35348 whole entry): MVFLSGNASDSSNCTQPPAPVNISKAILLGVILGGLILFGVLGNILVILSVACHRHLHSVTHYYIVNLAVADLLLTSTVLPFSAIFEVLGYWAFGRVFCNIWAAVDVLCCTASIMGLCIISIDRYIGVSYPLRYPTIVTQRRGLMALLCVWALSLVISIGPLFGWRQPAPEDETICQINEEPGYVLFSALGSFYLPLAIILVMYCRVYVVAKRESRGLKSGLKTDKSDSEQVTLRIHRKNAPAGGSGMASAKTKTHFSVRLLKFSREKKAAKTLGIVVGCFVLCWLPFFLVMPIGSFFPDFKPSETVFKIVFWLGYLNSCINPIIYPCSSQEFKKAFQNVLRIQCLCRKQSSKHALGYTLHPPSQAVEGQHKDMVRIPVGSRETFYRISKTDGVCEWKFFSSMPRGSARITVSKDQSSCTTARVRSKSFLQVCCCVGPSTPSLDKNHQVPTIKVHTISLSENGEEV
Experiment [13] deals with T1, Thromboxane A2 receptor. The class given is functional, cell-based.
Experiment [14] deals with T1, Thromboxane A2 receptor. The class given is functional, cell-based. This is another data set of the same source.
For experiment [15], the target named is Synaptic vesicular amine transporter (Rattus norvegicus, UniProt Q01827). The format is functional.
Experiment [16] has as its target Sodium-dependent noradrenaline transporter (Homo sapiens, UniProt P23975).
The target in experiment [17] is T3, Alpha-1A adrenergic receptor. The format is functional, cell-based. The source holds these as a separate data set.
In another experiment the target is Acetylcholinesterase (Homo sapiens, UniProt P22303). The format is functional.
Experiment [18] concerns the target Muscarinic acetylcholine receptor M2 (Homo sapiens, UniProt P08172).
The target in experiment [19] is Equilibrative nucleoside transporter 1 (Homo sapiens, UniProt Q99808).
Also: assay procedure not described here.

Sequence of Voltage-gated inwardly rectifying potassium channel KCNH2 (Q12809 whole entry): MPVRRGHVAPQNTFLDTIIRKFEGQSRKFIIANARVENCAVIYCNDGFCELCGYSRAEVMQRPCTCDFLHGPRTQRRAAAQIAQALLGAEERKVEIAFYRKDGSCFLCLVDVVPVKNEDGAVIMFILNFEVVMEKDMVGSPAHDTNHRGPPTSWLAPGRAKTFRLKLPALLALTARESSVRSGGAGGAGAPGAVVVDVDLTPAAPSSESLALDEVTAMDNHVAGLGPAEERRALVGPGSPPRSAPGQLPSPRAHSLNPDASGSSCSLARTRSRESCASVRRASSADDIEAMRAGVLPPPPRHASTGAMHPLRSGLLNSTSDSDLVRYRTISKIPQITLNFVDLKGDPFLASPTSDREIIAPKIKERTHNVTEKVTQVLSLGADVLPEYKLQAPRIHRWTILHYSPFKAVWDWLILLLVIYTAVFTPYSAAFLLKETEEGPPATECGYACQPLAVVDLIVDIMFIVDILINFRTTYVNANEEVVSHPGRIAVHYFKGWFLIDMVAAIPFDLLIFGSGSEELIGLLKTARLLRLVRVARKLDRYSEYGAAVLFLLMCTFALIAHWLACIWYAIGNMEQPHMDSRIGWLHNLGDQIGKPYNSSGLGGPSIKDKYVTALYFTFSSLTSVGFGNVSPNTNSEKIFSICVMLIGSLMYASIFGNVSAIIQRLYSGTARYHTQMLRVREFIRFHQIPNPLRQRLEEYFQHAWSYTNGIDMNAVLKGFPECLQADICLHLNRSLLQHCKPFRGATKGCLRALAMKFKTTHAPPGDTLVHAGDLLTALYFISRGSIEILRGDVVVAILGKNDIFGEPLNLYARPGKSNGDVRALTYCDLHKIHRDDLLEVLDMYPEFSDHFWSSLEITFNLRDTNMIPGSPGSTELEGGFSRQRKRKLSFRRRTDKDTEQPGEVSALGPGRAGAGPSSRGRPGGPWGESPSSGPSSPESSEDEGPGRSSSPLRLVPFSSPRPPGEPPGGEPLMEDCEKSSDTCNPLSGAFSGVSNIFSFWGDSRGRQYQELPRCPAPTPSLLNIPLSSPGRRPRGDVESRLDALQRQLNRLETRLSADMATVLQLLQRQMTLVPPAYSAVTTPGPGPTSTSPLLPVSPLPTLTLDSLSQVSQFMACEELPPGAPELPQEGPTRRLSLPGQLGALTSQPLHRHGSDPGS
Sequence of Glucocorticoid receptor (P04150 whole entry): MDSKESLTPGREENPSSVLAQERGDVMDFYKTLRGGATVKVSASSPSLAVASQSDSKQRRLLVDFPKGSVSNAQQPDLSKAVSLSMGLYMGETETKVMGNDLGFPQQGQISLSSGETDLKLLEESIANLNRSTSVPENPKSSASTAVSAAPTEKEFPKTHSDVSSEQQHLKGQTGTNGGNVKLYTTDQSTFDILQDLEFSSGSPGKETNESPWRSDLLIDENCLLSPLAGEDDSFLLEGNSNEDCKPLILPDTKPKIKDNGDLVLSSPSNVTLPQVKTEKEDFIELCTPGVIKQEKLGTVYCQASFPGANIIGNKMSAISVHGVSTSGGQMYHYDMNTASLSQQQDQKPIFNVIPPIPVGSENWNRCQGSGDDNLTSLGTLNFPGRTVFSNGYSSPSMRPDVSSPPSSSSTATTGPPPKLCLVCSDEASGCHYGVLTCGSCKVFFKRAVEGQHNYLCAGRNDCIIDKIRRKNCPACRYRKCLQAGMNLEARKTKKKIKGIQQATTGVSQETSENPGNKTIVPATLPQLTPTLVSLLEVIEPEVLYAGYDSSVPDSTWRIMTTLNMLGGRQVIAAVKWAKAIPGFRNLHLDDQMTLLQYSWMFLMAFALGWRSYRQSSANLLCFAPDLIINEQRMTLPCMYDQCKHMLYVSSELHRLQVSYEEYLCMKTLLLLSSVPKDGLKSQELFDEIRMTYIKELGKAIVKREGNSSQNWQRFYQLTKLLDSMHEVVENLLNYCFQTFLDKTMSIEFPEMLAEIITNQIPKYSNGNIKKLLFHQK
Sequence of D(3) dopamine receptor (P35462 whole entry): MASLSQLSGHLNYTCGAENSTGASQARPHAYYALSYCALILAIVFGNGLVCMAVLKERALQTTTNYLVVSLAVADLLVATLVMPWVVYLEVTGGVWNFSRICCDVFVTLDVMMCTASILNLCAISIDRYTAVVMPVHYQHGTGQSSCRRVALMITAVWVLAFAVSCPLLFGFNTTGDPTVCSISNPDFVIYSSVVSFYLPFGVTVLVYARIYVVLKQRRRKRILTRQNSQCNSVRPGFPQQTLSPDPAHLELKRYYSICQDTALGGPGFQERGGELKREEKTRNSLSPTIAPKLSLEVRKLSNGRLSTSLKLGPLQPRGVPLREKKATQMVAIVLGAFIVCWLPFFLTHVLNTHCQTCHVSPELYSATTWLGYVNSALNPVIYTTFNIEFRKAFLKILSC

Consider `Clc1ccccc1C(c1ccccc1)(c1ccccc1)n1ccnc1` [CLOTRIMAZOLE], for which the AC50 on Melanocortin receptor 4 came out at 30.1 µM; at Thromboxane A2 receptor [1], 15.5 µM; in experiment [2], 28.1 µM; at Adenosine receptor A3 [3] it was 3.17 µM; in experiment [4] it was 5.59 µM; at Glucocorticoid receptor it was 11.3 µM.

Consider `CCCCCCCCCCCCCCCC[n+]1ccccc1`, for which the AC50 in experiment [5] worked out at 6.09 µM; in experiment [6], 12.5 µM; in [7], 2.4 µM; on D(3) dopamine receptor, 0.546 µM; at Adenosine receptor A3 [8], 3.26 µM; in experiment [9] it was 50 µM. In addition, the AC50 is 13 µM on Histamine H3 receptor; 9.87 µM in [10]; 1.3 µM in experiment [4]; 35.9 µM in [11]; 59 µM on Bile salt export pump; 6.43 µM in experiment [12]. Besides, the AC50 at Thromboxane A2 receptor [13] is above 10 µM; on Thromboxane A2 receptor [14] it was 3.36 µM; in experiment [15], 0.73 µM; at D(1A) dopamine receptor, 4.84 µM; on Estrogen receptor it was 18 µM; in experiment [16], 2.31 µM. Also, the AC50 was determined as 10.5 µM in experiment [17], 4.68 µM at Acetylcholinesterase, 0.827 µM in experiment [18] and 4.54 µM at Progesterone receptor.

Regarding `CN1[C@@H]2CC[C@H]1C[C@@H](OC(c1ccccc1)c1ccccc1)C2` [BENZTROPINE], the concentration at half-maximal activity (AC50) in [19] came to 38.5 µM.
